Experimental findings from US20200093786A1, “S[…] OF CANNABIS FOR TREATING MULTIPLE MYELOMA” (One World Cannabis LTD, priority 2014, published 2020) are described below.

This assay concerns RPMI8226 multiple myeloma (MM) human cell lines. The following applies: for IC50: Homo sapiens, RPMI-8226, read-out: dose that caused 50% of MM cell death; for survival of RPMIS MM cells: concentration of about 20 μM and higher.

Structures are written as SMILES.

Consider `CCCCCc1cc(O)c2c(c1)OC(C)(C)[C@@H]1CCC(C)=C[C@@H]21` [THC, Tetrahydrocannabinol], for which the IC50 stood at 22 µM and the “survival of RPMIS MM cells” value is recorded as “about 50%”.

With `C=C(C)[C@@H]1CCC(C)=C[C@H]1c1c(O)cc(CCCCC)cc1O` [CBD, Cannabidiol], the IC50 stood at 16 µM and the “survival of RPMIS MM cells” value is given as “about 50%”.
